# Results: the supplement of paper PMC5499739
# In all, about 16,000 sequences were measured (“Z-score”: median about -0.37, highest 2% from about 3.2 on). Some of the results follow.
# Tested on: RBM10 RRM1-ZnF (GST-tagged construct)
# Experiment: RNAcompete 7-mer binding Z-score; higher = stronger binding preference
# Method in brief: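 Each heptamer motif was given a one-sided Z-score for enrichment across the probes that contained it. GST-tagged RBM10 constructs (20 pmol) were combined with 1.5 nmol of a designed pool of 241 399 RNAs of up to 41 nt, transcribed from microarray-derived DNA templates. Binding took place in 1 ml Hepes pH 7.8 buffer containing KCl, NaCl, glycerol, DTT, BSA and glutathione Sepharose beads for 30 min at 4°C. After four 2-min washes at 4°C, bound RNA was identified by microarray hybridisation.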
row,Sequence,RNAcompete 7-mer binding Z-score
1,UUACUGU,-0.558
2,GGAACUG,0.949
3,AGGGAAG,4.53
4,UUAAUGU,-0.106
5,UGGUAUC,0.27
6,UGCGAGU,0.166
7,CUAUACU,-0.73
8,AAUGAGC,0.124
9,GUCACAG,0.257
10,UCUCAGU,-0.668
11,UACCAAA,-0.529
12,CAUACAG,-0.34
13,CUGUACU,-0.743
14,CUACAUA,-0.493
15,CGCCGUC,-0.457
16,AGAUACU,-0.733
17,GUAGACG,1.3
18,CGUAUCU,-0.857
19,AACUACU,-0.529
20,AGCAUAG,0.482
21,UUCGAUG,-0.269
22,AGAGUGC,0.121
23,CUGUCGU,-0.581

row,Sequence,RNAcompete 7-mer binding Z-score
1,CCCGGAA,-0.5
2,GCGCACU,-0.295
3,CCGAUUG,-0.629
4,GCGCAGC,0.0658
5,CGAUGCU,-0.743
6,CGGCUCA,-0.467
7,GCGUAUC,-0.513
8,UCUUAAG,-0.6
9,ACGCAUU,-0.516
10,GACUCGG,-0.204
11,UAGGCGA,1.14
12,AGAGAAA,0.495
13,AUCUUUU,-0.805
14,GGCUGCC,0.153
15,AUUACCG,-0.694
16,AUUGUUC,-0.629
17,AUUAUUA,-0.483
18,AAUGACC,-0.6
19,UGACUUA,-0.522
20,UGCCGAC,-0.652
21,AAUCCCA,-0.766
22,CGACACA,-0.405
23,UGCUAUU,-0.659

row,Sequence,RNAcompete 7-mer binding Z-score
1,CACGGUC,-0.36
2,CCUUCGC,-0.766
3,CAGUACG,-0.259
4,UAAAAUU,-0.483
5,UAAGCAU,-0.561
6,UAUGAGA,0.17
7,GCCAUCU,-0.675
8,AAUUGAG,0.218
9,UAAACAG,-0.191
10,CCCGCCU,-0.513
11,CUCAAGA,-0.6
12,GAUAAGA,0.465
13,CCAAGUC,-0.678
14,GAACCAG,-0.0934
15,GUAAAUG,0.768
16,CACGCUA,-0.62
17,UGUACAG,0.205
18,AUGACGG,1.39
19,GGGAUUU,1.51
20,UCUACUG,-0.623
21,CCUAGAC,-0.795
22,UGAUAUG,0.397
23,UCAUUCA,-0.737

row,Sequence,RNAcompete 7-mer binding Z-score
1,UCCCCGC,-0.314
2,GGACUCG,0.0528
3,CAGCGGC,0.0983
4,UUGGUCC,-0.561
5,AAGGCAU,0.79
6,GGGUGUG,3.76
7,ACGCGGG,1.63
8,CGCGGUG,0.94
9,AUGAGAA,0.277
10,UGAAAAU,-0.0869
11,CAGAAUU,-0.327
12,ACGGGGC,2.26
13,UAAGAAA,-0.178
14,GACCCAU,-0.876
15,AUGAGGC,0.969
16,UACGCUC,-0.506
17,UGGUCUA,0.03
18,CCUCACG,-0.701
19,AGGGUCU,0.667
20,GGCUCGA,-0.0285
21,AAGAGAC,0.3
22,GAAGGUC,1.25
23,CACCGCA,-0.548

row,Sequence,RNAcompete 7-mer binding Z-score
1,CAUGACU,-0.649
2,CAGCUAG,-0.285
3,UAGAAUG,0.92
4,CGGCCUC,-0.617
5,CAGAUCU,-0.707
6,AGAGGUG,2.04
7,CAAGCGG,0.982
8,GAUCAUC,-0.617
9,GGUACUU,0.0398
10,AGAAGCG,0.543
11,AUGCUGC,-0.435
12,CCAUAUC,-0.75
13,UUUCUCG,-0.727
14,CCGAGGC,-0.0902
15,UAAUCUA,-0.571
16,UGUAUGA,-0.0447
17,AUCCUAC,-0.87
18,AGUAGUA,0.0268
19,CAAAAGG,0.888
20,CCGCCUA,-0.61
21,AUGUGGC,0.586
22,CUGCGGG,1.52
23,GGGGCAC,2.36

row,Sequence,RNAcompete 7-mer binding Z-score
1,CCGGAGA,0.131
2,UAUGCCC,-0.6
3,UCCUGCC,-0.733
4,AAACGUA,-0.262
5,GGCGGGC,2.11
6,CGGAACC,-0.22
7,AAUUAUA,-0.464
8,UAAUCGU,-0.604
9,UCCCCGG,-0.324
10,GCAUUGU,-0.366
11,GUACGUC,-0.262
12,AAUGCUA,-0.425
13,GAAGCGU,0.446
14,ACCCUUC,-0.863
15,AGCUCGU,-0.48
16,UUGCUCG,-0.675
17,AAGCUUG,-0.519
18,ACGGAAU,1.09
19,CUUCGUG,-0.636
20,CGCGGGG,2.15
21,UGAUUGA,0.0105
22,CAUACCC,-0.808
23,GGUGGUA,2.95

row,Sequence,RNAcompete 7-mer binding Z-score
1,AGUCUAC,-0.584
2,ACCGAGG,0.699
3,GCCCGUA,-0.681
4,CCCUAGA,-0.665
5,GAACGCU,-0.487
6,AUGAAGA,0.547
7,CAACCCC,-0.418
8,GUAUCGU,-0.204
9,GUUGUAG,0.985
10,GCAGAUA,-0.0122
11,CUCAAUU,-0.805
12,AAUCUUG,-0.805
13,ACUCUGG,-0.451
14,AAGCAAG,0.423
15,UUGACUG,-0.513
16,UCUUGUG,-0.578
17,UCGCGUU,-0.62
18,CUGGGGA,1.76
19,UGAAAAA,-0.292
20,UAUUGUU,-0.542
21,UUUUGGC,-0.318
22,CCAGUCA,-0.526
23,UUGGUGA,1.7

row,Sequence,RNAcompete 7-mer binding Z-score
1,ACAGGUA,2.37
2,GGUAUAG,2.52
3,UUUAGAG,0.111
4,UGAAGAU,0.196
5,UGACGUA,0.0268
6,CCAGGUU,0.082
7,AUAUGAA,-0.129
8,GUAGCCA,0.00729
9,CCAAAUU,-0.889
10,GUACGGC,0.153
11,UCUACUU,-0.932
12,GGCGCCA,-0.0609
13,AGUUGGC,0.579
14,GAUUGAC,-0.129
15,CGGUCCG,-0.438
16,ACUAACU,-0.737
17,CGCCUUU,-0.863
18,AGUCCUA,-0.617
19,GGCUCUC,-0.396
20,AUACAGG,1.23
21,UCUCUGG,-0.49
22,AGGCUUC,-0.613
